Reference: article PMC11149917, “Translational and Therapeutic Evaluation of RAS-GTP Inhibition by RMC-6236 in RAS-Driven Cancers” (Cancer Discovery, 2024)
This continues a long series; more values of the same kind are listed elsewhere.

Test system: PRISM panel of 845 cancer cell lines
Test: PRISM assay
Assay type: cell-based, human
Experimental: The PRISM cell set comprised 845 cell lines representing more than 45 lineages (see Supplementary Table S1 for cell line information), which largely overlapped with the Cancer Cell Line Encyclopedia; https://portals.broadinstitute.org/ccle). Cell lines were grown in RPMI without phenol red and supplemented with 10% or 20% FBS for adherent and suspended lines, respectively. Parental cell lines were stably infected with a unique 24-nucleotide DNA barcode via lentiviral transduction and blasticidin selection. After selection, barcoded cell lines were expanded and subjected to quality control (Mycoplasma contamination test, an SNP test for confirming cell line identity, and barcode ID confirmation). Approved cell lines were then pooled (20–25 cell lines per pool) based on doubling time similarity and frozen in assay-ready vials.
RMC-6236 was added to 384-well plates at 8-point concentration with 3-fold dilutions in triplicate. These assay-ready plates were then seeded with the thawed cell line pools. Adherent cell pools were plated at 1,250 cells per well, whereas suspension and mixed adherent/suspension pools were plated at 2,000 cells per well. Treated cells were incubated for 5 days, and then lysed. Lysate plates were collapsed together prior to barcode amplification and detection.
Each cell line's unique barcode is located in the 3′UTR of the blasticidin-resistance gene and therefore is expressed as mRNA. Total mRNA was captured using magnetic particles that recognize polyA sequences. Captured mRNA was reverse-transcribed into cDNA and then the sequence containing the unique PRISM barcode was amplified using PCR. Finally, Luminex beads that recognize the specific barcode sequences in the cell set were hybridized to the PCR products and detected using a Luminex scanner which reports the signal as a median fluorescent intensity (MFI).
• Each detection well contained 10 control barcodes in increasing abundances as spike-in controls. For each plate, we first create a reference profile by calculating the median of the log2(MFI) values across negative control wells for each of these spiked-in barcodes. • For each well, a monotonic smooth p-spline was fitted to map the spike-in control levels to the reference profile. Next, we transform the log2(MFI) for each cell barcode using the fitted spline to allow well-to-well comparisons by correcting for amplification and detection artifacts. • Next, the separability between negative and positive control treatments was assessed. In particular, we calculated the error rate of the optimum simple threshold classifier between the control samples for each cell line and plate combination. The error rate is a measure of the overlap of the two control sets and was defined as error = (FP + FN)/n, where FP is false positives, FN is false negatives, and n is the total number of controls. A threshold was set between the distributions of positive and negative control log2(MFI) values (with everything below the threshold said to be positive and above said to be negative) such that this value is minimized. Additionally, we also calculated the dynamic range of each cell line. […] Additionally, any cell line that had less than 2 passing replicates was also omitted for the sake of reproducibility. Finally, we computed viability by normalizing with respect to the median negative control for each plate.
For every gene with nonsilent mutations in at least four cell lines, we compared the AUC values between cells with and without those mutations using a t test. This analysis was carried out for (i) the full data set; (ii) excluding cell lines with nonsilent KRAS mutations; and (iii) excluding cell lines that have either KRAS or NRAS nonsilent mutations.

## CCn1c(-c2cc(N3CCN(C)CC3)cnc2[C@H](C)OC)c2c3cc(ccc31)-c1csc(n1)C[C@H](NC(=O)[C@H]1C[C@@H]1C)C(=O)N1CCC[C@H](N1)C(=O)OCC(C)(C)C2 [RMC-6236]
NCIH1568_LUNG
  RMC-6236: RevMed PRISM: AUC: 0.8053
NCIH1573_LUNG, KRAS p.G12A
  RMC-6236: RevMed PRISM: AUC: 0.765
NCIH1581_LUNG
  RMC-6236: RevMed PRISM: AUC: 0.8503
NCIH1648_LUNG
  RMC-6236: RevMed PRISM: AUC: 0.4542
NCIH1650_LUNG
  RMC-6236: RevMed PRISM: AUC: 0.8079
NCIH1651_LUNG
  RMC-6236: RevMed PRISM: AUC: 0.9567
NCIH1693_LUNG
  RMC-6236: RevMed PRISM: AUC: 0.8065
NCIH1694_LUNG
  RMC-6236: RevMed PRISM: AUC: 0.8734
NCIH1703_LUNG
  RMC-6236: RevMed PRISM: AUC: 0.7011
NCIH1793_LUNG
  RMC-6236: RevMed PRISM: AUC: 0.7652
NCIH1876_LUNG
  RMC-6236: RevMed PRISM: AUC: 0.9868
NCIH1915_LUNG, HRAS p.Q61L
  RMC-6236: RevMed PRISM: AUC: 0.7986
NCIH1975_LUNG
  RMC-6236: RevMed PRISM: AUC: 0.7099
NCIH2009_LUNG, KRAS p.G12A
  RMC-6236: RevMed PRISM: AUC: 0.6662
NCIH2023_LUNG
  RMC-6236: RevMed PRISM: AUC: 0.6627
NCIH2052_PLEURA
  RMC-6236: RevMed PRISM: AUC: 0.7108
NCIH2087_LUNG, NRAS p.Q61K
  RMC-6236: RevMed PRISM: AUC: 0.6223
NCIH2171_LUNG
  RMC-6236: RevMed PRISM: AUC: 1
NCIH2172_LUNG
  RMC-6236: RevMed PRISM: AUC: 0.7803
NCIH2228_LUNG
  RMC-6236: RevMed PRISM: AUC: 0.6053
NCIH2347_LUNG, KRAS p.L19F, NRAS p.Q61R
  RMC-6236: RevMed PRISM: AUC: 0.517
NCIH2444_LUNG, KRAS p.G12V
  RMC-6236: RevMed PRISM: AUC: 0.489
NCIH2452_PLEURA
  RMC-6236: RevMed PRISM: AUC: 0.9808
NCIN87_STOMACH
  RMC-6236: RevMed PRISM: AUC: 0.9908
NIHOVCAR3_OVARY
  RMC-6236: RevMed PRISM: AUC: 0.917
NOMO1_HAEMATOPOIETIC_AND_LYMPHOID_TISSUE, KRAS p.G13D
  RMC-6236: RevMed PRISM: AUC: 0.3781
NP2_CENTRAL_NERVOUS_SYSTEM
  RMC-6236: RevMed PRISM: AUC: 1
NP5_CENTRAL_NERVOUS_SYSTEM
  RMC-6236: RevMed PRISM: AUC: 1
NUDHL1_HAEMATOPOIETIC_AND_LYMPHOID_TISSUE, KRAS p.A146T
  RMC-6236: RevMed PRISM: AUC: 0.3893
NUGC3_STOMACH
  RMC-6236: RevMed PRISM: AUC: 0.4376
OACM51_OESOPHAGUS
  RMC-6236: RevMed PRISM: AUC: 0.6177
OAW42_OVARY
  RMC-6236: RevMed PRISM: AUC: 0.7978
OCIC4P_OVARY
  RMC-6236: RevMed PRISM: AUC: 0.8046
OCILY132_HAEMATOPOIETIC_AND_LYMPHOID_TISSUE
  RMC-6236: RevMed PRISM: AUC: 0.8446
OCUG1_BILIARY_TRACT
  RMC-6236: RevMed PRISM: AUC: 0.5217
OE19_OESOPHAGUS
  RMC-6236: RevMed PRISM: AUC: 0.6938
ONCODG1_OVARY
  RMC-6236: RevMed PRISM: AUC: 0.9179
ONDA9_CENTRAL_NERVOUS_SYSTEM
  RMC-6236: RevMed PRISM: AUC: 0.8553
OSC20_UPPER_AERODIGESTIVE_TRACT
  RMC-6236: RevMed PRISM: AUC: 0.7713
OUMS23_LARGE_INTESTINE
  RMC-6236: RevMed PRISM: AUC: 0.9616
OV7_OVARY, KRAS p.G12D
  RMC-6236: RevMed PRISM: AUC: 0.3448
OV17R_OVARY
  RMC-6236: RevMed PRISM: AUC: 0.9153
OV56_OVARY, KRAS p.G12C
  RMC-6236: RevMed PRISM: AUC: 0.7821
OVTOKO_OVARY
  RMC-6236: RevMed PRISM: AUC: 0.8289
OZ_BILIARY_TRACT, KRAS p.Q61L
  RMC-6236: RevMed PRISM: AUC: 0.6195
P12ICHIKAWA_HAEMATOPOIETIC_AND_LYMPHOID_TISSUE, NRAS p.G12D
  RMC-6236: RevMed PRISM: AUC: 0.2027
PACADD119_PANCREAS, KRAS p.G12A
  RMC-6236: RevMed PRISM: AUC: 0.6233
PACADD137_PANCREAS
  RMC-6236: RevMed PRISM: AUC: 0.6876
PACADD161_PANCREAS, KRAS p.G12V
  RMC-6236: RevMed PRISM: AUC: 0.3243
PANC1_PANCREAS, KRAS p.G12D
  RMC-6236: RevMed PRISM: AUC: 0.7528
PANC0203_PANCREAS, KRAS p.G12D
  RMC-6236: RevMed PRISM: AUC: 0.3296
PANC0327_PANCREAS, KRAS p.G12V
  RMC-6236: RevMed PRISM: AUC: 0.444
PANC0403_PANCREAS, KRAS p.G12D
  RMC-6236: RevMed PRISM: AUC: 0.3919
PANC0504_PANCREAS, KRAS p.G12D
  RMC-6236: RevMed PRISM: AUC: 0.3709
PANC0813_PANCREAS, KRAS p.G12D
  RMC-6236: RevMed PRISM: AUC: 0.5043
PANC1005_PANCREAS, KRAS p.G12D
  RMC-6236: RevMed PRISM: AUC: 0.6117
PATU8902_PANCREAS, KRAS p.G12V
  RMC-6236: RevMed PRISM: AUC: 0.6019
PATU8988S_PANCREAS, KRAS p.G12V
  RMC-6236: RevMed PRISM: AUC: 0.3696
PATU8988T_PANCREAS, KRAS p.G12V
  RMC-6236: RevMed PRISM: AUC: 0.6684
PC14_LUNG
  RMC-6236: RevMed PRISM: AUC: 0.707
PEA1_OVARY
  RMC-6236: RevMed PRISM: AUC: 0.9148
PF382_HAEMATOPOIETIC_AND_LYMPHOID_TISSUE, NRAS p.G12S
  RMC-6236: RevMed PRISM: AUC: 0.6853
PFSK1_CENTRAL_NERVOUS_SYSTEM
  RMC-6236: RevMed PRISM: AUC: 1
PK1_PANCREAS, KRAS p.G12D
  RMC-6236: RevMed PRISM: AUC: 0.5693
PK8_PANCREAS, KRAS p.G12R
  RMC-6236: RevMed PRISM: AUC: 0.452
PK59_PANCREAS, KRAS p.G12D
  RMC-6236: RevMed PRISM: AUC: 0.5182
PLCPRF5_LIVER
  RMC-6236: RevMed PRISM: AUC: 0.8433
QGP1_PANCREAS, KRAS p.G12V
  RMC-6236: RevMed PRISM: AUC: 0.5692
RBE_BILIARY_TRACT, KRAS p.G12V
  RMC-6236: RevMed PRISM: AUC: 0.3265
RCC10RGB_KIDNEY
  RMC-6236: RevMed PRISM: AUC: 0.8192
RERFGC1B_STOMACH
  RMC-6236: RevMed PRISM: AUC: 0.7342
RERFLCAD1_LUNG, KRAS p.G12A
  RMC-6236: RevMed PRISM: AUC: 0.6942
RERFLCAD2_LUNG, KRAS p.G12V
  RMC-6236: RevMed PRISM: AUC: 0.4143
RERFLCAI_LUNG
  RMC-6236: RevMed PRISM: AUC: 0.7756
RERFLCMS_LUNG
  RMC-6236: RevMed PRISM: AUC: 0.9753
RH4_SOFT_TISSUE
  RMC-6236: RevMed PRISM: AUC: 0.9095
RH28_SOFT_TISSUE
  RMC-6236: RevMed PRISM: AUC: 1
RH36_SOFT_TISSUE, HRAS p.Q61K
  RMC-6236: RevMed PRISM: AUC: 0.538
RKO_LARGE_INTESTINE
  RMC-6236: RevMed PRISM: AUC: 0.9213
RL952_ENDOMETRIUM, HRAS p.Q61H
  RMC-6236: RevMed PRISM: AUC: 0.4836
RMGI_OVARY
  RMC-6236: RevMed PRISM: AUC: 0.7524
RMSYM_SOFT_TISSUE
  RMC-6236: RevMed PRISM: AUC: 1
RMUGS_OVARY
  RMC-6236: RevMed PRISM: AUC: 0.8116
RO82W1_THYROID
  RMC-6236: RevMed PRISM: AUC: 0.7213
RPMI7951_SKIN
  RMC-6236: RevMed PRISM: AUC: 0.934
RPMI8402_HAEMATOPOIETIC_AND_LYMPHOID_TISSUE, HRAS p.A134S
  RMC-6236: RevMed PRISM: AUC: 0.9235
RT4_URINARY_TRACT
  RMC-6236: RevMed PRISM: AUC: 0.6078
RT112_URINARY_TRACT
  RMC-6236: RevMed PRISM: AUC: 0.3381
RVH421_SKIN
  RMC-6236: RevMed PRISM: AUC: 0.7708
S117_THYROID
  RMC-6236: RevMed PRISM: AUC: 0.7471
SAOS2_BONE
  RMC-6236: RevMed PRISM: AUC: 1
SBC5_LUNG
  RMC-6236: RevMed PRISM: AUC: 0.7492
SCABER_URINARY_TRACT
  RMC-6236: RevMed PRISM: AUC: 0.6211
